The list shows a part of the results.

For the test, the target named is T1, MBP-FoxP1dN (Mus musculus, UniProt P58462 326-579).
T1 sequence: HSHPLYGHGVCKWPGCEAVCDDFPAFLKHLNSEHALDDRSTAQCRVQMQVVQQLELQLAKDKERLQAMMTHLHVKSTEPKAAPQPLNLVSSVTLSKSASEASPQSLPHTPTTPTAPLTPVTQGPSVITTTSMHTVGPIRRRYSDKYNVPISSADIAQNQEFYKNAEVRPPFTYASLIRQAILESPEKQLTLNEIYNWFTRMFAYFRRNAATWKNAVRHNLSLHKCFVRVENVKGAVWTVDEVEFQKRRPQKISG
The test is described as follows: PD-seq (MBP pull-down with sequencing); 20 mM Tris-HCl pH 7.5, 100 mM NaCl, 1.5 mM MgCl2, 0.4 uM protein, 0.1 uM dsDNA library, 30 min, room temperature, amylose pull-down; high values mean tight binding. The following applies: protein: recombinant; tags: His6-MBP; chain copies: 2; dsDNA, one strand shown. The procedure, abridged: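 Amylose resin was used to capture complexes formed during 30 min at room temperature in Tris pH 7.5 buffer with NaCl and MgCl2 between 0.4 µM His6-MBP-tagged mouse FoxP3 or FoxP1 fragment lacking the N-terminus, expressed in E. coli, and 0.1 µM Klenow-filled double-stranded degenerate DNA library. After three washes, the DNA was released with proteinase K, barcoded by PCR and sequenced on Illumina. Binding is pooled-replicate reads-per-million enrichment, pull-down over input.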
Turning to “GATGATTGTTCTCCCAGCTGATGAATTTGGAGCCTCGAGTAAACAAATTTTCCTAATCTTTCTGTTCAAGCGCCATCTAC”, the binding signal is 0.853 RPM ratio (pull-down/input). Next, “GATGATTGTTCTCCCAGCTGATGAATTGAATCACTCGAGTAAACAAATTTTCCTAATCTTTCTGTTCAAGCGCCATCTAC”: 0.936 RPM ratio (pull-down/input); “GATGATTGTTCTCCCAGCTGATGAATTCTCAGGCTCGAGTAAACAAATTTTCCTAATCTTTCTGTTCAAGCGCCATCTAC”: 0.852 RPM ratio (pull-down/input); “GATGATTGTTCTCCCAGCTGATGAATTCATACGGTCGAGTAAACAAATTTTCCTAATCTTTCTGTTCAAGCGCCATCTAC”: 0.84 RPM ratio (pull-down/input). Then “GATGATTGTTCTCCCAGCTGATGAATTCGATTCTTCGAGTAAACAAATTTTCCTAATCTTTCTGTTCAAGCGCCATCTAC”, with 0.855 RPM ratio (pull-down/input). Then “GATGATTGTTCTCCCAGCTGATGAATTTCACCAATCGAGTAAACAAATTTTCCTAATCTTTCTGTTCAAGCGCCATCTAC”, with 1.04 RPM ratio (pull-down/input). On to “GATGATTGTTCTCCCAGCTGATGAATTCGCGGTGTCGAGTAAACAAATTTTCCTAATCTTTCTGTTCAAGCGCCATCTAC”, for which the binding signal is 0.858 RPM ratio (pull-down/input). Next, “GATGATTGTTCTCCCAGCTGATGAATTAATGGGGTCGAGTAAACAAATTTTCCTAATCTTTCTGTTCAAGCGCCATCTAC”: 0.798 RPM ratio (pull-down/input). With “GATGATTGTTCTCCCAGCTGATGAATTACCACCATCGAGTAAACAAATTTTCCTAATCTTTCTGTTCAAGCGCCATCTAC”, the binding signal is 1.11 RPM ratio (pull-down/input). Then “GATGATTGTTCTCCCAGCTGATGAATTTCCGCTTTCGAGTAAACAAATTTTCCTAATCTTTCTGTTCAAGCGCCATCTAC”, with 0.883 RPM ratio (pull-down/input); and “GATGATTGTTCTCCCAGCTGATGAATTGGGCTATTCGAGTAAACAAATTTTCCTAATCTTTCTGTTCAAGCGCCATCTAC”, with 0.934 RPM ratio (pull-down/input); and “GATGATTGTTCTCCCAGCTGATGAATTACTGCACTCGAGTAAACAAATTTTCCTAATCTTTCTGTTCAAGCGCCATCTAC”, with 1.06 RPM ratio (pull-down/input). In the case of “GATGATTGTTCTCCCAGCTGATGAATTACAAGCTTCGAGTAAACAAATTTTCCTAATCTTTCTGTTCAAGCGCCATCTAC”, the binding signal is 1.15 RPM ratio (pull-down/input). As to “GATGATTGTTCTCCCAGCTGATGAATTACAGGTCTCGAGTAAACAAATTTTCCTAATCTTTCTGTTCAAGCGCCATCTAC”, the binding signal is 0.983 RPM ratio (pull-down/input).

Take “GATGATTGTTCTCCCAGCTGATGAATTCTTTCAATCGAGTAAACAAATTTTCCTAATCTTTCTGTTCAAGCGCCATCTAC”: the binding signal is 0.972 RPM ratio (pull-down/input).

As to “GATGATTGTTCTCCCAGCTGATGAATTGCATGCATCGAGTAAACAAATTTTCCTAATCTTTCTGTTCAAGCGCCATCTAC”, the binding signal is 1.52 RPM ratio (pull-down/input).

For the sequence “GATGATTGTTCTCCCAGCTGATGAATTCCCCTTATCGAGTAAACAAATTTTCCTAATCTTTCTGTTCAAGCGCCATCTAC”, the binding signal is 0.861 RPM ratio (pull-down/input). Then “GATGATTGTTCTCCCAGCTGATGAATTCTAAGTCTCGAGTAAACAAATTTTCCTAATCTTTCTGTTCAAGCGCCATCTAC”, with 0.892 RPM ratio (pull-down/input). Then “GATGATTGTTCTCCCAGCTGATGAATTCAGATCTTCGAGTAAACAAATTTTCCTAATCTTTCTGTTCAAGCGCCATCTAC”, with 0.784 RPM ratio (pull-down/input); and “GATGATTGTTCTCCCAGCTGATGAATTGATGTAATCGAGTAAACAAATTTTCCTAATCTTTCTGTTCAAGCGCCATCTAC”, with 1.63 RPM ratio (pull-down/input).

In the case of “GATGATTGTTCTCCCAGCTGATGAATTCGGTGATTCGAGTAAACAAATTTTCCTAATCTTTCTGTTCAAGCGCCATCTAC”, the binding signal is 0.938 RPM ratio (pull-down/input). For “GATGATTGTTCTCCCAGCTGATGAATTTGTTACATCGAGTAAACAAATTTTCCTAATCTTTCTGTTCAAGCGCCATCTAC”, the binding signal is 1.39 RPM ratio (pull-down/input). Then “GATGATTGTTCTCCCAGCTGATGAATTAATGACCTCGAGTAAACAAATTTTCCTAATCTTTCTGTTCAAGCGCCATCTAC”, with 0.901 RPM ratio (pull-down/input); and “GATGATTGTTCTCCCAGCTGATGAATTGATGCTGTCGAGTAAACAAATTTTCCTAATCTTTCTGTTCAAGCGCCATCTAC”, with 1.4 RPM ratio (pull-down/input); and “GATGATTGTTCTCCCAGCTGATGAATTACCGGAATCGAGTAAACAAATTTTCCTAATCTTTCTGTTCAAGCGCCATCTAC”, with 1.02 RPM ratio (pull-down/input).

For “GATGATTGTTCTCCCAGCTGATGAATTGTATCAGTCGAGTAAACAAATTTTCCTAATCTTTCTGTTCAAGCGCCATCTAC”, the binding signal is 1.2 RPM ratio (pull-down/input). In the case of “GATGATTGTTCTCCCAGCTGATGAATTTCGATCCTCGAGTAAACAAATTTTCCTAATCTTTCTGTTCAAGCGCCATCTAC”, the binding signal is 0.75 RPM ratio (pull-down/input). Next, “GATGATTGTTCTCCCAGCTGATGAATTGTTAAAGTCGAGTAAACAAATTTTCCTAATCTTTCTGTTCAAGCGCCATCTAC”: 1.2 RPM ratio (pull-down/input).

“GATGATTGTTCTCCCAGCTGATGAATTCGTCCTATCGAGTAAACAAATTTTCCTAATCTTTCTGTTCAAGCGCCATCTAC”: the binding signal is 0.835 RPM ratio (pull-down/input). On to “GATGATTGTTCTCCCAGCTGATGAATTAGCACTCTCGAGTAAACAAATTTTCCTAATCTTTCTGTTCAAGCGCCATCTAC”, for which the binding signal was 0.939 RPM ratio (pull-down/input). Then “GATGATTGTTCTCCCAGCTGATGAATTACGCGTGTCGAGTAAACAAATTTTCCTAATCTTTCTGTTCAAGCGCCATCTAC”, with 1.05 RPM ratio (pull-down/input).
